Experimental data published in PubChem BioAssay AID1745853 (National Center for Advancing Translational Sciences (NCATS), 2022).
This is one part of the list. Shown are side measurements of this screen, not its main read-out; they come without a call.

Legend:
Assay in all cases: Primary Screen for Target Class Profiling of Small Molecule Inhibitors of Methyltransferases
[1] = target: Glycine N-methyltransferase (Homo sapiens) (UniProt Q14749); conditions: purified enzyme, MTase-Glo SAH luminescence; measured here: GNMT inhibition; at 40 µM; stronger effect = lower value
Summary of the method: (§1)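 Each enzyme was reacted with SAM and its substrate, with compounds tested once at 40 uM; SAH formed was read by MTase-Glo luminescence.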

[2] = target: Guanidinoacetate N-methyltransferase (Homo sapiens) (UniProt Q14353); conditions: purified enzyme, MTase-Glo SAH luminescence; measured here: GAMT inhibition; at 40 µM; stronger effect = lower value
Summary of the method: as §1

[3] = target: Histamine N-methyltransferase (Homo sapiens) (UniProt P50135); conditions: purified enzyme, MTase-Glo SAH luminescence; measured here: HNMT inhibition; at 40 µM; stronger effect = lower value
Summary of the method: as §1

[4] = target: Nicotinamide N-methyltransferase (Homo sapiens) (UniProt P40261); conditions: purified enzyme, MTase-Glo SAH luminescence; measured here: NNMT inhibition; at 40 µM; stronger effect = lower value
Summary of the method: as §1

[5] = target: Phenylethanolamine N-methyltransferase (Homo sapiens) (UniProt P11086); conditions: purified enzyme, MTase-Glo SAH luminescence; measured here: PNMT inhibition; at 40 µM; stronger effect = lower value
Summary of the method: as §1
% is scaled to controls: 0 for no effect and ±100 for the full control effect.

| SMILES | activity change, negative = inhibition [1] [%] | activity change, negative = inhibition [2] [%] | activity change, negative = inhibition [3] [%] | activity change, negative = inhibition [4] [%] | activity change, negative = inhibition [5] [%] |
| --- | --- | --- | --- | --- | --- |
| OC1(CN2CCC(c3nc(-c4ccccc4)no3)CC2)CNCCOC1 (stereo not given) | -1.34 | -10.2 | -2.29 | -4.95 | -0.833 |
| CC1(C)CC(=O)c2c(C(F)(F)F)nn(-c3ccc(C(N)=O)c(NC4CCC(O)CC4)c3)c2C1 (stereo not given) | -24.5 | -20.1 | 4.5 | -36.9 | -2.52 |
| CCc1nccc(-c2c(-c3ccccc3)ncn2CC(O)c2ccccc2)n1 (stereo not given) | -2.27 | -8.75 | -1.67 | -8.85 | -6.28 |
| COCCC1(CO)CCCN(C(=O)CCc2c(C)noc2C)C1 (stereo not given) | -0.593 | -0.562 | -2.62 | -1.61 | -0.13 |
| Cc1c(O)cccc1C(=O)N[C@@H](CSc1ccccc1)[C@H](O)CN1C[C@H]2CCCC[C@H]2C[C@H]1C(=O)NC(C)(C)C | -11.9 | 4.2 | -3.58 | -17.5 | 6.44 |
| Cc1ccc(CN2C(=O)c3cc4sccc4n3CC2(C)C(=O)NC2CCCCC2C)cc1 (stereo not given) | -5.12 | 5.99 | -2.78 | 0.591 | -1.7 |
| Cc1cc2c(cc3n2CC(C)(C(=O)NC2CCCCCC2)N(CCC(C)C)C3=O)o1 (stereo not given) | -0.148 | 0 | 8.8 | -4.64 | 4 |
| Cc1cccc(C2CCCN(C(=O)c3cn(CCc4ccccc4)nn3)C2)c1 (stereo not given) | -4.77 | -2.86 | -4.41 | -7.13 | -9.39 |
| COc1ccc(Cn2c(=O)c3ccccc3n3c(-c4ccccc4OC)nnc23)cc1 | -0.437 | 1.41 | 2.54 | 4.54 | 1.2 |
| CCC(C)CNCC(=O)N1CCc2sccc2C1COc1cccc(C)c1 (stereo not given) | 4.78 | 19.2 | 7.84 | -18.9 | 3.2 |
| CC(C)CNC(=O)c1ccc2c(=O)n(CC(C)C)c3nnc(SCC(N)=O)n3c2c1 | 3.44 | 0.236 | 4.82 | 5.42 | 5.9 |
| CSc1ccc(CCNC(=O)c2cc3n(n2)CC(C)(C(=O)NCCC(C)C)N(C)C3=O)cc1 (stereo not given) | -1.38 | 0 | 2.35 | -3.77 | -2.29 |
| C/C=C(\C)C(=O)OC1C(C)C2(O)C(C=C(CO)CC3(O)C(=O)C(C)=CC32)C2C(C)(C)C12OC(=O)C(C)C (stereo not given) | -2.86 | -9.35 | 4.1 | -20.8 | -5.39 |
| CCc1nncn1C1CCN(C(=O)c2cc(-c3cccs3)[nH]n2)C1 (stereo not given) | -15.6 | -7.85 | -4 | -15.3 | -4.02 |
| COc1ccc(OC)c2c1cc1n2CC(C)(C(=O)NC2CCCC2)N(CCN2CCOCC2)C1=O (stereo not given) | -0.14 | 0 | 10.7 | 10.6 | 3.18 |
| O=c1cc(CN2CCOCC2)occ1OCCCCCSc1ccnc2cc(C(F)(F)F)ccc12 | -28.2 | -8.17 | -7.27 | -33.4 | -7.06 |
| Cc1ccccc1N1C(=O)c2cc3ccccc3n2CC1(C)C(=O)NCCC(C)C (stereo not given) | 3.93 | 0.688 | 5.87 | 5.68 | 1.99 |
| CCOC(=O)c1cc2n(n1)CC(C)(C(=O)NC1CCCCCC1)N(c1ccc(C)cc1C)C2=O (stereo not given) | 8.91 | 1.76 | 6.41 | 12.1 | 7.33 |
| COc1ccc(/C=C2\COc3ccc(C)cc3C2=O)cc1O | -33.2 | 7.73 | -3.47 | -17.9 | 2.09 |
| Cc1ccc(-c2coc(-c3ccc(NS(=O)(=O)c4ccc5c(c4)n(C)c(=O)n5C)cc3)n2)c(C)c1 | 6.49 | 0 | 5.35 | -3.12 | 0.61 |
| COc1cccc(CN2CCOC3CCN(Cc4ccccc4Cl)CC3C2=O)c1 (stereo not given) | -7.63 | -5.84 | -5.5 | -11.8 | -3.24 |
| CCc1ccc(NC(=O)CSc2nnc3n(CC(C)C)c(=O)c4ccccc4n23)cc1 | -20.7 | -7.24 | 7.89 | -16.2 | -3.73 |
| COC(=O)c1cc2n(n1)CC(C)(C(=O)NC1CCCCCC1)N(c1cc(OC)cc(OC)c1)C2=O (stereo not given) | -4.07 | -0.067 | -2.58 | -5.77 | -4.51 |
| COc1ccc(C(=O)NC[C@H]2O[C@@H](CC(=O)N3CCN(c4ccccc4)CC3)[C@H](O)[C@@H]2O)cc1 | -8.1 | -8.68 | -5.28 | -0.349 | -7.05 |
| COC1=C(OC)C(=O)c2ccccc2C1=O | -40.9 | -13.3 | -13.4 | -17.7 | -9.96 |
| C/C=C1/CC2C(=O)Nc3cc(O)c(OC)cc3C(=O)N2C1 (stereo not given) | 0.268 | -1.44 | 8.67 | -13 | 3.79 |
| CCCn1c(=O)c2cc(Cl)ccc2n2c(=O)n(CC(=O)Nc3ccc(F)cc3)nc12 | -7.8 | 0 | 5.37 | -7.92 | -7.42 |
| COc1ccc(-c2nnc(-c3ccc(Cl)c(S(=O)(=O)N4CCC(C)CC4)c3)o2)cc1OC | -1.95 | 2.46 | 1.81 | 1.04 | -0.984 |
| Cn1nc(C(=O)N2CCCC(CN3CCOCC3)CC2)c2ccccc21 (stereo not given) | -5.86 | -0.807 | -3.11 | -2.92 | -11.7 |
| COc1ccc(OC)c(CN2C(=O)c3cc4ccccc4n3CC2(C)C(=O)NCCC(C)C)c1 (stereo not given) | -2.07 | 1.48 | -1.65 | -8.49 | -9.53 |
